IC50 is the fitted dose that halves viability relative to control wells, and lower means more sensitive; a fit beyond the top or the lowest dose is shown as a bound at that dose. AUC is the area under the same curve over the 256-fold range up to the top dose, as a fraction; the more sensitive the line, the further below 1. For some assays here: Where the top dose is marked as inferred, it was calculated from the reported fits. For some assays here: Where an entry number is given, a second screen of the drug exists; the two often differ.
Tests used:
Assay in all cases: Viability of human cancer cell lines after 72 h of drug (GDSC screen)
[1] = compound: Cn1cnc2c(F)c(Nc3ccc(Br)cc3Cl)c(C(=O)NOCCO)cc21 [AZD6244]; conditions: top dose 4 µM; screen: GDSC drug entry 1498; top dose inferred
Description: (§1)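 Human cancer cell lines in 384-well plates, medium with 10% serum, drug for 72 h over a 256-fold dose range (nine 2-fold or five 4-fold steps up to the top dose). Adherent lines were fixed and stained with the nucleic acid dye Syto60, suspension lines read with resazurin; signal relative to control wells, capped at 0 and 100%. One two-parameter sigmoid per drug and line, fitted in a mixed model over all curves with the slope shared within a line.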

[2] = compound: N#CC(c1ccnc(NCCc2cccnc2)n1)c1nc2ccccc2s1 [AS601245]; conditions: top dose 8 µM; top dose inferred
Description: as §1

[3] = compound: NC(=O)C1CCCc2c1[nH]c1ccc(Cl)cc21 [EX-527]; conditions: top dose 20 µM
Description: as §1

[4] = compound: Nc1ccc(C(=O)Nc2cccc(-c3nc(N4CCOCC4)c4oc5ncccc5c4n3)c2)cn1 [YM201636]; conditions: top dose 5.12 µM; top dose inferred
Description: as §1

Cell Line	AUC [1]	IC50 [1] [µM]	AUC [2]	IC50 [2] [µM]	AUC [3]	IC50 [3] [µM]	AUC [4]	IC50 [4] [µM]
HCC1419 (breast, adherent)	0.957	> 4	0.911	> 8	0.982	> 20	0.902	> 5.12
HCC1428 (breast, adherent)	0.901	> 4	0.908	> 8	0.988	> 20	0.98	> 5.12
HCC1569 (breast, adherent)	0.969	> 4	0.684	1.96	0.978	> 20	0.86	> 5.12
HCC1806 (breast, adherent)	0.953	> 4	0.649	1.24	0.983	> 20	0.948	> 5.12
HCC1937 (breast, adherent)	0.939	> 4	0.804	4.77	0.985	> 20	0.795	2.81
HCC1954 (breast, adherent)	0.932	> 4	0.83	6.18	0.983	> 20	0.97	> 5.12
HCC-15 (lung squamous cell carcinoma, adherent)	0.46	0.188	0.882	> 8	0.977	> 20	0.965	> 5.12
HCC-44 (lung adenocarcinoma, adherent)	0.831	2.46	0.854	6.08	0.969	> 20	0.879	5.07
HCC-56 (large intestine, adherent)	0.567	0.384	0.835	5.45	0.987	> 20	0.823	3.11
HCC-78 (lung adenocarcinoma, adherent)	0.89	> 4	0.937	> 8	0.968	> 20	0.896	> 5.12
HCC-827 (lung adenocarcinoma, adherent)	0.94	> 4	0.713	2.21	0.981	> 20	0.975	> 5.12
HCE-4 (oesophagus, adherent)	0.931	> 4	0.864	5.39	0.984	> 20	0.992	> 5.12
HCT-15 (large intestine, adherent)	0.962	> 4	0.822	5.06	0.979	> 20	0.921	> 5.12
HDQ-P1 (breast, adherent)	0.9	> 4	0.849	7.86	0.975	> 20	0.94	> 5.12
HEC-1 (endometrium, adherent)	0.962	> 4	0.908	> 8	0.989	> 20	0.977	> 5.12
HGC-27 (stomach, adherent)	0.989	> 4	0.762	2.46	0.982	> 20	0.741	1.37

Cell Line	AUC [1]	IC50 [1] [µM]	AUC [2]	IC50 [2] [µM]	AUC [3]	IC50 [3] [µM]	AUC [4]	IC50 [4] [µM]
HLE (liver, adherent)	0.927	> 4	0.764	2.74	0.959	> 20	0.84	3.24
HMV-II (melanoma, adherent)	0.458	0.188	0.544	0.677	0.974	> 20	0.878	> 5.12
HN (head and neck, adherent)	0.709	0.929	0.989	> 8	0.989	> 20	0.989	> 5.12
HO-1-N-1 (head and neck, adherent)	0.634	0.566	0.866	6.2	0.988	> 20	0.968	> 5.12
HO-1-u-1 (head and neck, adherent)	0.952	> 4	0.863	6.43	0.988	> 20	0.911	> 5.12
HOP-92 (large cell lung carcinoma, adherent)	0.853	3.91	0.895	> 8	0.978	> 20	0.984	> 5.12
HOS (osteosarcoma, adherent)	0.95	> 4	0.823	3.73	0.988	> 20	0.988	> 5.12
HPAC (pancreas, adherent)	0.905	> 4	0.88	> 8	0.979	> 20	0.942	> 5.12
HPAF-II (pancreas, adherent)	0.725	1.35	0.942	> 8	0.979	> 20	0.947	> 5.12
HSC-2 (head and neck, adherent)	0.981	> 4	0.861	5.93	0.989	> 20	0.982	> 5.12
HSC-3 (head and neck, adherent)	0.587	0.418	0.901	7.75	0.989	> 20	0.979	> 5.12
HT55 (large intestine, adherent)	0.81	2.1	0.92	> 8	0.99	> 20	0.979	> 5.12
HT-3 (cervix, adherent)	0.882	> 4	0.917	> 8	0.987	> 20	0.934	> 5.12
HT-29 (large intestine, adherent)	0.423	0.154	0.837	5.36	0.986	> 20	0.945	> 5.12
HT-115 (large intestine, adherent)	0.929	> 4	0.948	> 8	0.977	> 20	0.99	> 5.12

From the supplement of paper PMC4967469
